The results in this text go back to the supplement of paper PMC3334620.

Over roughly 33,000 sequences, “E-score (-0.5 to 0.5)” has its median near -0.054; the highest 2% begin near 0.35. Some of the results follow.

The target of this assay is T1, Stb5 (UniProt P38699).
T1 sequence: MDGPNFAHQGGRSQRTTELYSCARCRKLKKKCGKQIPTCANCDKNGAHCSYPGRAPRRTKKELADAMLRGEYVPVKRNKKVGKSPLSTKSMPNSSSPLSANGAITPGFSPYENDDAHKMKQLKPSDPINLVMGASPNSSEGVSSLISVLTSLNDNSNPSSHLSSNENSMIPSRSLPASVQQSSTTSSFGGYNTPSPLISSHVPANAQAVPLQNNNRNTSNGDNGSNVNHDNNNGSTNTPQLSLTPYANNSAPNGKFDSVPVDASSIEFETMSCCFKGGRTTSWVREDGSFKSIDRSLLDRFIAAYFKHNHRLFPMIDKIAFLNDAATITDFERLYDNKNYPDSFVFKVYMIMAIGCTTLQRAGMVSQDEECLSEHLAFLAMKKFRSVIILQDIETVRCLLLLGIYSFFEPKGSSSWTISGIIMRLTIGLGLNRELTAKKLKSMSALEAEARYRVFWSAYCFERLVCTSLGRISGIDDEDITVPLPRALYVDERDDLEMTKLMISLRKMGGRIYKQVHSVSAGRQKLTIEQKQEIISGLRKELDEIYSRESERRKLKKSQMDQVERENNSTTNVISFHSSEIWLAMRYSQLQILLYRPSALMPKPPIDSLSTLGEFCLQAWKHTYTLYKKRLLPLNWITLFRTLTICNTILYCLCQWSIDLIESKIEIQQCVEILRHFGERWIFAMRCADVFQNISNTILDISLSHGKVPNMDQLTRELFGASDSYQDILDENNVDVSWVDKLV
Kind of assay: PBM E-score (8-mer binding enrichment) (E-score (-0.5 to 0.5)); higher = stronger / more preferred TF binding; most listed sequences are background and not binding sites. Conditions: protein concentration: 200 nM; construct: GST-full length. In a few lines: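 Each ungapped eight-base word and its reverse complement, pooled, received an E-score from the Universal PBM Analysis Suite. Underlying scans, normalised with masliner, recorded fluorescent anti-GST bound to GST-tagged yeast transcription factors. These were applied at about 100-200 nM to universal all-10-mer Agilent arrays double-stranded by primer extension.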
With AACGGACC, the “PBM E-score” value was found to be 0.38.

Regarding GCCGCTTA, the “PBM E-score” value amounted to 0.258.

Regarding CCGAAGAG, the “PBM E-score” value stood at 0.0938.

For GGGCGTGA, the “PBM E-score” value was -0.171.

As to TATACAAA, the “PBM E-score” value was -0.0515.

As for GTCGACAA, the “PBM E-score” value is -0.0265.

Take ACAAGTTC: the “PBM E-score” value was -0.115.

As to AGCTGTCG, the “PBM E-score” value was -0.11.

As for CCAATGAG, the “PBM E-score” value was -0.201.

Take CTGACGGC: the “PBM E-score” value is 0.157.

AATTACGC: the “PBM E-score” value is -0.194.

As to AGGCAAAA, the “PBM E-score” value is -0.0993.

Consider ATCACAGA, for which the “PBM E-score” value is -0.0214.

Turning to AGCCAGAT, the “PBM E-score” value was -0.126.

On to GGAACTAA, for which the “PBM E-score” value is 0.373.

For GCCACGAA, the “PBM E-score” value amounted to 0.0246.

For ATACTTTC, the “PBM E-score” value is -0.0748.

In the case of ACTCTGTC, the “PBM E-score” value was -0.117.

On to GTCAGCAC, for which the “PBM E-score” value is -0.045.

As for CTTGATAA, the “PBM E-score” value came to 0.00634.

CGCTCGCA: the “PBM E-score” value worked out at 0.0692.

For the sequence AAAACAGA, the “PBM E-score” value is -0.186.

For ATATGTCC, the “PBM E-score” value was 0.406.

ACCCCCAT: the “PBM E-score” value was -0.27.

Consider CGTGGGAG, for which the “PBM E-score” value came out at 0.0265.

In the case of CCGAACCC, the “PBM E-score” value was 0.111.

As for CTTCCTAA, the “PBM E-score” value is -0.116.

Turning to CCGCACTA, the “PBM E-score” value came to 0.205.

TAATCCAA: the “PBM E-score” value was -0.117.

Consider CCCGAGTA, for which the “PBM E-score” value was 0.227.

In the case of CCCCAAAC, the “PBM E-score” value is -0.226.

With ACTCGAAG, the “PBM E-score” value was -0.0168.

On to CCCTCTCA, for which the “PBM E-score” value was -0.284.

As to GAGTTGCC, the “PBM E-score” value turned out to be 0.0794.

On to ACCCTTGA, for which the “PBM E-score” value was -0.0281.

Take ACAGTGTA: the “PBM E-score” value was -0.314.

For the sequence ACAATGCG, the “PBM E-score” value is -0.0154.

Take AGTTGCGA: the “PBM E-score” value was -0.222.

Take ACCTGCAG: the “PBM E-score” value was -0.343.

In the case of AACTGTCA, the “PBM E-score” value is -0.249.

On to AGCTAGTC, for which the “PBM E-score” value is -0.0527.

For CATCTCGC, the “PBM E-score” value came out at 0.0525.

As for CCCTCGAG, the “PBM E-score” value was -0.339.

As for CCTATGAG, the “PBM E-score” value is -0.324.

Regarding AAGACGTC, the “PBM E-score” value is -0.271.

Consider AAAAACGC, for which the “PBM E-score” value amounted to 0.118.

In the case of AGATGACG, the “PBM E-score” value is -0.226.

For the sequence AGAGCGAC, the “PBM E-score” value is -0.0175.

For the sequence GCCCTAGC, the “PBM E-score” value is -0.0132.

Take CATATTTA: the “PBM E-score” value was determined as 0.0934.

CCGCGGTC: the “PBM E-score” value turned out to be 0.32.

Turning to GCGGTCAA, the “PBM E-score” value stood at 0.241.

With AAGATAAT, the “PBM E-score” value is -0.0346.

Turning to GTCTAGCA, the “PBM E-score” value was determined as 0.0804.

With TTTGCAAA, the “PBM E-score” value was -0.154.

With TCACGTCA, the “PBM E-score” value is -0.0784.

On to GAAGTGCA, for which the “PBM E-score” value is -0.201.

In the case of AGTGGGGC, the “PBM E-score” value was -0.219.

Turning to TAAAGTGA, the “PBM E-score” value was -0.0387.

Regarding ACTCCAAG, the “PBM E-score” value is -0.0735.

In the case of ACGGTAAA, the “PBM E-score” value turned out to be 0.142.

Take ACGTCCAC: the “PBM E-score” value was -0.156.

Take AGCAGTCG: the “PBM E-score” value worked out at 0.0526.

On to AAAGGTAT, for which the “PBM E-score” value amounted to 0.0224.

Consider AGCCACCC, for which the “PBM E-score” value is -0.0205.

With ACCGAAAT, the “PBM E-score” value turned out to be 0.223.

As for AGCATAAA, the “PBM E-score” value worked out at 0.0761.

Take GAACCAAA: the “PBM E-score” value is -0.212.

As for CAACTAAG, the “PBM E-score” value is -0.0736.

In the case of GCTGCGCC, the “PBM E-score” value was -0.0775.

Turning to CAAGTCTC, the “PBM E-score” value was -0.223.

On to CAGCTGCA, for which the “PBM E-score” value is -0.111.

On to TTACGTAA, for which the “PBM E-score” value is -0.263.

Consider AGCCCTTC, for which the “PBM E-score” value is -0.213.

Take TCTGGGCA: the “PBM E-score” value worked out at 0.115.

Turning to ACAAACAG, the “PBM E-score” value was 0.00671.

Consider AGCCGACT, for which the “PBM E-score” value worked out at 0.149.

As for CGCGCCGA, the “PBM E-score” value was determined as 0.277.

Turning to CCCGGCCA, the “PBM E-score” value turned out to be 0.182.

As to GATAAGAA, the “PBM E-score” value is -0.0257.

On to TGAAGACA, for which the “PBM E-score” value is -0.105.

AGCCGTAC: the “PBM E-score” value is -0.00301.

On to CGAGCATC, for which the “PBM E-score” value is -0.0291.

For AGAACGAA, the “PBM E-score” value is -0.0966.

As for GGTGCTCA, the “PBM E-score” value amounted to 0.0877.

For the sequence CGGACCGC, the “PBM E-score” value amounted to 0.298.

As to AATCTAGA, the “PBM E-score” value was -0.0895.

On to AGAAGCAC, for which the “PBM E-score” value is -0.0713.

ATCTAACG: the “PBM E-score” value was 0.118.

With AGTAGGAC, the “PBM E-score” value is -0.0741.

On to ACGTTAAG, for which the “PBM E-score” value came out at 0.127.

For the sequence ACTGATAG, the “PBM E-score” value was -0.269.

Take TGCCACCA: the “PBM E-score” value was -0.338.

In the case of CGGATACC, the “PBM E-score” value was determined as 0.0377.

Turning to ACCTAAGC, the “PBM E-score” value was -0.0629.

CGTTCTCC: the “PBM E-score” value is -0.133.

Consider AGATCAGA, for which the “PBM E-score” value is -0.298.

For the sequence CGCTTAAC, the “PBM E-score” value amounted to 0.0488.

Regarding CAGACGAG, the “PBM E-score” value was -0.199.

CCGCGCAG: the “PBM E-score” value is 0.248.

With CCGTATCG, the “PBM E-score” value was 0.154.

With CCGTCGTC, the “PBM E-score” value amounted to 0.161.

ATTCGCGC: the “PBM E-score” value is -0.0553.

As for GGGCCACA, the “PBM E-score” value is -0.0815.

Turning to ATTGAATG, the “PBM E-score” value was -0.126.

With GACCGATC, the “PBM E-score” value is 0.323.

For AAGGTCCA, the “PBM E-score” value is -0.171.

As to GTGTTGAA, the “PBM E-score” value is -0.206.

Take CATAGGTC: the “PBM E-score” value was 0.0421.

Turning to GGGCCCCA, the “PBM E-score” value was -0.0142.
